Test results published in patent US20230086069A1 (SYSTIMMUNE, published 2023).

T1: His-tagged human CD19 (human, UniProt P15391 20-291, limits assumed)
T1 construct: not shown: His tag
T1 sequence (looked up): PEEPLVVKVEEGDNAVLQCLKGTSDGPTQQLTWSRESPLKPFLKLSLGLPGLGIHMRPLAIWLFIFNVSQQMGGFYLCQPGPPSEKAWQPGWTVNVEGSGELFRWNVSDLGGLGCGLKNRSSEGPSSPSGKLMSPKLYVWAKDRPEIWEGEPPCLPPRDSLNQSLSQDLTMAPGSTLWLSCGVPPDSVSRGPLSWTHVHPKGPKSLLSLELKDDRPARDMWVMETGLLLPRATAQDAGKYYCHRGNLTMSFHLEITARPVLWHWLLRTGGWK

T2: human CD19 on cells (CD20+ B cells of human PBMC; Raji lymphoma cells) (human, UniProt P15391 20-556)
T2 sequence (looked up): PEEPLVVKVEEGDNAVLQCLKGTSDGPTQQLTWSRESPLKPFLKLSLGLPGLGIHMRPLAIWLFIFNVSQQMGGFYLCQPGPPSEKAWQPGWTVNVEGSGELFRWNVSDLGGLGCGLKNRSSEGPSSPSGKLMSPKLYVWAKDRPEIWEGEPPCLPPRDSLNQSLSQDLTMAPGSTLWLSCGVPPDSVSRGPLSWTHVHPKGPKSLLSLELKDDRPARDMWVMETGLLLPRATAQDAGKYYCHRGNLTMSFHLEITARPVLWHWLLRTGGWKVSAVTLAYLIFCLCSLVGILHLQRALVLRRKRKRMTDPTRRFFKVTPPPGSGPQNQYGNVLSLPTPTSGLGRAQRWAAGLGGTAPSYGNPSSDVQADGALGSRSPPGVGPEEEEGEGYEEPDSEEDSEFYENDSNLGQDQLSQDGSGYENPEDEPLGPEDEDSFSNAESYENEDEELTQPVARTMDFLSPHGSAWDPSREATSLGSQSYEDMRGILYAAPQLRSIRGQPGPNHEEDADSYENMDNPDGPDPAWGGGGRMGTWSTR

B1: SI-38P12 (pentaGNC antibody, humanized CD19 binding domain H4 at D6) (other)
heavy: QIVLSQSPAILSASPGEKVTMTCRASSSVSYIHWFQQKPGSSPKPWIYATSNLASGVPVRFSGSGSGTSYSLTISRVEAEDAATYYCQQWTSNPPTFGGGTKLTVLGGGGSGGGGSGGGGSGGGGSQVQLQQPGAELVKPGASVKMSCKASGYTFTSYNMHWVKQTPGRGLEWIGAIYPGNGDTSYNQKFKGKATLTADKSSSTAYMQLSSLTSEDSAVYYCARSTYYGGDWYFNVWGAGTTVTVSSGGGGSGGGGSEVQLVESGGGLVQPGGSLRLSCAASGFTISTNAMSWVRQAPGKGLEWIGVITGRDITYYASWAKGRFTISRDNSKNTLYLQMNSLRAEDTAVYYCARDGGSSAITSNNIWGQGTLVTVSSASTKGPSVFPLAPSSKSTSGGTAALGCLVKDYFPEPVTVSWNSGALTSGVHTFPAVLQSSGLYSLSSVVTVPSSSLGTQTYICNVNHKPSNTKVDKRV[omitted - human IgG1 Fc with changes]GGGGSGGGGSEVQLLESGGGLVQPGGSLRLSCAASGFSFSSGYDMCWVRQAPGKGLEWIACIAAGSAGITYDANWAKGRFTISRDNSKNTLYLQMNSLRAEDTAVYYCARSAFSFDYAMDLWGQGTLVTVSSGGGGSGGGGSGGGGSGGGGSDIQMTQSPSTLSASVGDRVTITCQASQSISSHLNWYQQKPGKAPKLLIYKASTLASGVPSRFSGSGSGTEFTLTISSLQPDDFATYYCQQGYSWGNVDNVFGGGTKVEIKGGGGSGGGGSGRSLVESGGGLVQPGGSLRLSCTASGFTISSYHMQWVRQAPGKGLEYIGTISSGGNVYYASSARGRFTISRPSSKNTVDLQMNSLRAEDTAVYYCARDSGYSDPMWGQGTLVTVSSGGGGSGGGGSGGGGSGGGGSDVVMTQSPSSVSASVGDRVTITCQASQNIRTYLSWYQQKPGKAPKLLIYAAANLASGVPSRFSGSGSGTDFTLTISDLEPGDAATYYCQSTYLGTDYVGGAFGGGTKVEIK
light: ENVLTQSPASLSASPGERVTITCSASSSVSYMHWYQQKPGQAPKLWIYDTSKLASGVPSRFSGSGSGNDHTLTISSMEPEDFATYYCFQGSVYPFTFGQGTKVTVLGGGGSGGGGSGGGGSGGGGSQVTLKESGPGLVQPGQTLRLTCAFSGFSLSTSGMGVGWIRQPPGKGLEWLAHIWWDDDKRYNPALKSRLTISKDTSKNQVYLQMNSLDAEDTAVYYCARMELWSYYFDYWGQGTLVTVSSGGGGSGGGGSDVVMTQSPSTLSASVGDRVTINCQASESISSWLAWYQQKPGKAPKLLIYEASKLASGVPSRFSGSGSGTEFTLTISSLQPDDFATYYCQGYFYFISRTYVNSFGGGTKVEIKRTVAAPSVFIFPPSDEQLKSGTASVVCLLNNFYPREAKVQWKVDNALQSGNSQESVTEQDSKDSTYSLSSTLTLSKADYEKHKVYACEVTHQGLSSPVTKSFNRGEC
B2: SI-77H6 (hexaGNC antibody, humanized CD19 binding domain H7 at D2, Fab) (other)
heavy: EIVLTQSPSTLSVSPGERATFSCRASQSIGTNIHWYQQKPGKPPRLLIKYASESISGIPDRFSGSGSGTEFTLTISSVQSEDFAVYYCQQNNNWPTTFGPGTKLTVLGGGGSGGGGSGGGGSGGGGSQVQLQQSGPGLVKPSETLSITCTVSGFSLTNYGVHWIRQAPGKGLEWLGVIWSGGNTDYNTPFTSRFTITKDNSKNQVYFKLRSVRADDTAIYYCARALTYYDYEFAYWGQGTLVTVSSGGGGSGGGGSQVTLKESGPGLVQPGQTLRLTCAFSGFSLSTSGMGVGWIRQPPGKCLEWLAHIWWDDDKRYNPALKSRLTISKDTSKNQVYLQMNSLDAEDTAVYYCARMELWSYYFDYWGQGTLVTVSSASTKGPSVFPLAPSSKSTSGGTAALGCLVKDYFPEPVTVSWNSGALTSGVHTFPAVLQSSGLYSLSSVVTVPSSSLGTQTYICNVNHKPSNTKVDKRV[omitted - human IgG1 Fc with changes]GGGGSGGGGSEVQLLESGGGLVQPGGSLRLSCAASGFSFSSGYDMCWVRQAPGKGLEWIACIAAGSAGITYDANWAKGRFTISRDNSKNTLYLQMNSLRAEDTAVYYCARSAFSFDYAMDLWGQGTLVTVSSGGGGSGGGGSGGGGSGGGGSDIQMTQSPSTLSASVGDRVTITCQASQSISSHLNWYQQKPGKAPKLLIYKASTLASGVPSRFSGSGSGTEFTLTISSLQPDDFATYYCQQGYSWGNVDNVFGGGTKVEIKGGGGSGGGGSGRSLVESGGGLVQPGGSLRLSCTASGFTISSYHMQWVRQAPGKGLEYIGTISSGGNVYYASSARGRFTISRPSSKNTVDLQMNSLRAEDTAVYYCARDSGYSDPMWGQGTLVTVSSGGGGSGGGGSGGGGSGGGGSDVVMTQSPSSVSASVGDRVTITCQASQNIRTYLSWYQQKPGKAPKLLIYAAANLASGVPSRFSGSGSGTDFTLTISDLEPGDAATYYCQSTYLGTDYVGGAFGGGTKVEIK
light: EIVMTQSPSTLSASVGDRVIITCQASESISSWLAWYQQKPGKAPKLLIYEASKLASGVPSRFSGSGSGAEFTLTISSLQPDDFATYYCQGYFYFISRTYVNSFGQGTKLTVLGGGGSGGGGSGGGGSGGGGSEVQLVESGGGLVQPGGSLSLSCAASGFTISTNAMSWVRQAPGKGLEWVGVITGRDITYYASWAKGRFTISRDTSKNTVYLQMNSLRAEDTAVYYCARDGGSSAITSNNIWGQGTLVTVSSGGGGSGGGGSENVLTQSPASLSASPGERVTITCSASSSVSYMHWYQQKPGQAPKLWIYDTSKLASGVPSRFSGSGSGNDHTLTISSMEPEDFATYYCFQGSVYPFTFGCGTKVEIKRTVAAPSVFIFPPSDEQLKSGTASVVCLLNNFYPREAKVQWKVDNALQSGNSQESVTEQDSKDSTYSLSSTLTLSKADYEKHKVYACEVTHQGLSSPVTKSFNRGECGGGGSGGGGSGGGGSQSALTQPASVSGSPGQSITISCTGTSSDVGGYNFVSWYQQHPGKAPKLMIYDVSDRPSGVSDRFSGSKSGNTASLIISGLQADDEADYYCSSYGSSSTHVIFGGGTKVTVLGGGGSGGGGSGGGGSGGGGSQVQLQESGGGLVKPGGSLSLSCAASGFTFSSYWMSWVRQAPGKGLEWVANINRDGSASYYVDSVKGRFTISRDDAKNSLYLQMNSLRAEDTAVYYCARDRGVGYFDLWGRGTLVTVSS
B3: SI-77H3 (hexaGNC antibody, humanized CD19 binding domain H4 at D1) (other)
heavy: ENVLTQSPASLSASPGERVTITCSASSSVSYMHWYQQKPGQAPKLWIYDTSKLASGVPSRFSGSGSGNDHTLTISSMEPEDFATYYCFQGSVYPFTFGQGTKVTVLGGGGSGGGGSGGGGSGGGGSQVTLKESGPGLVQPGQTLSLTCAFSGFSLSTSGMGVGWIRQPPGKGLEWLAHIWWDDDKRYNPALKSRLTISKDTSKNQVYLQMNSLDAEDTAVYYCARMELWSYYFDYWGQGTLVTVSSGGGGSGGGGSQVQLQQSGPGLVKPSETLSITCTVSGFSLTNYGVHWIRQAPGKCLEWLGVIWSGGNTDYNTPFTSRFTITKDNSKNQVYFKLRSVRADDTAIYYCARALTYYDYEFAYWGQGTLVTVSSASTKGPSVFPLAPSSKSTSGGTAALGCLVKDYFPEPVTVSWNSGALTSGVHTFPAVLQSSGLYSLSSVVTVPSSSLGTQTYICNVNHKPSNTKVDKRV[omitted - human IgG1 Fc with changes]GGGGSGGGGSEVQLLESGGGLVQPGGSLRLSCAASGFSFSSGYDMCWVRQAPGKGLEWIACIAAGSAGITYDANWAKGRFTISRDNSKNTLYLQMNSLRAEDTAVYYCARSAFSFDYAMDLWGQGTLVTVSSGGGGSGGGGSGGGGSGGGGSDIQMTQSPSTLSASVGDRVTITCQASQSISSHLNWYQQKPGKAPKLLIYKASTLASGVPSRFSGSGSGTEFTLTISSLQPDDFATYYCQQGYSWGNVDNVFGGGTKVEIKGGGGSGGGGSGRSLVESGGGLVQPGGSLRLSCTASGFTISSYHMQWVRQAPGKGLEYIGTISSGGNVYYASSARGRFTISRPSSKNTVDLQMNSLRAEDTAVYYCARDSGYSDPMWGQGTLVTVSSGGGGSGGGGSGGGGSGGGGSDVVMTQSPSSVSASVGDRVTITCQASQNIRTYLSWYQQKPGKAPKLLIYAAANLASGVPSRFSGSGSGTDFTLTISDLEPGDAATYYCQSTYLGTDYVGGAFGGGTKVEIK
light: EIVMTQSPSTLSASVGDRVIITCQASESISSWLAWYQQKPGKAPKLLIYEASKLASGVPSRFSGSGSGAEFTLTISSLQPDDFATYYCQGYFYFISRTYVNSFGQGTKLTVLGGGGSGGGGSGGGGSGGGGSEVQLVESGGGLVQPGGSLSLSCAASGFTISTNAMSWVRQAPGKGLEWVGVITGRDITYYASWAKGRFTISRDTSKNTVYLQMNSLRAEDTAVYYCARDGGSSAITSNNIWGQGTLVTVSSGGGGSGGGGSEIVLTQSPSTLSVSPGERATFSCRASQSIGTNIHWYQQKPGKPPRLLIKYASESISGIPDRFSGSGSGTEFTLTISSVQSEDFAVYYCQQNNNWPTTFGCGTKLTVLRTVAAPSVFIFPPSDEQLKSGTASVVCLLNNFYPREAKVQWKVDNALQSGNSQESVTEQDSKDSTYSLSSTLTLSKADYEKHKVYACEVTHQGLSSPVTKSFNRGECGGGGSGGGGSGGGGSQSALTQPASVSGSPGQSITISCTGTSSDVGGYNFVSWYQQHPGKAPKLMIYDVSDRPSGVSDRFSGSKSGNTASLIISGLQADDEADYYCSSYGSSSTHVIFGGGTKVTVLGGGGSGGGGSGGGGSGGGGSQVQLQESGGGLVKPGGSLSLSCAASGFTFSSYWMSWVRQAPGKGLEWVANINRDGSASYYVDSVKGRFTISRDDAKNSLYLQMNSLRAEDTAVYYCARDRGVGYFDLWGRGTLVTVSS

Experiments:
His-tagged human CD19 = target: T1, His-tagged human CD19; experiment: BLI (Octet), GNC antibody on AHC sensor, His-tagged human CD19 as analyte, 1:1 fit
Experimental: To determine the binding affinity of the hexa and pentaGNC antibodies to human CD19, the Octet binding assay was used. The GNC antibodies were loaded via AHC sensors at 10 ug/ml and bound to a serial dilution (1:2.5 dilutions starting from the highest concentration of 200 nM) or a single 100-nM concentration of His-tagged human CD19.

[1] = target: T2, human CD19 on cells (CD20+ B cells of …); experiment: cell-based or functional assay

| Binder | Kd (His-tagged human CD19) | EC50 (pM), re-directed T cell cytotoxicity: cytolysis of Raji cells by human CD8 T cells [1] |
| --- | --- | --- |
| B1 | 1.11 nM |  |
| B2 |  | 30.2 pM |
| B3 |  | 8.1 pM |
